Laboratory results from patent EP4491631A1 (Anaveon AG, dated 2025).

Experiments:
Experiment in all cases: cell-based or functional assay
[1] = target: T1, IL-2R on murine splenocytes (mouse, UniProt P16297 27-539; P34902 23-369)
T1 sequence (looked up) 1: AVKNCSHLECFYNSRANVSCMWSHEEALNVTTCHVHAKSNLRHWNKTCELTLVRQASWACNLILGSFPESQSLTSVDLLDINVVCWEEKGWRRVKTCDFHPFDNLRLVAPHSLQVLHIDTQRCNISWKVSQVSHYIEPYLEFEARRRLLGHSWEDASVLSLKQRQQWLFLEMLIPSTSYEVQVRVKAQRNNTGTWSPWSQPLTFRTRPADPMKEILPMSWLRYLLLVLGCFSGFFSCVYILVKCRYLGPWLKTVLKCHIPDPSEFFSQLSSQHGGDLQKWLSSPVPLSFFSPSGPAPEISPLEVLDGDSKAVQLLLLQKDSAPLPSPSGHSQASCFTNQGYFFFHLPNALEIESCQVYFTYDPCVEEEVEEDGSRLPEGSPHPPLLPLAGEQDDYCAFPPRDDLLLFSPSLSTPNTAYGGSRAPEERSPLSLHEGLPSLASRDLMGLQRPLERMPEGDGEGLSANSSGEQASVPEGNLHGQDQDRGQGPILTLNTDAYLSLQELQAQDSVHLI
T1 sequence (looked up) 2: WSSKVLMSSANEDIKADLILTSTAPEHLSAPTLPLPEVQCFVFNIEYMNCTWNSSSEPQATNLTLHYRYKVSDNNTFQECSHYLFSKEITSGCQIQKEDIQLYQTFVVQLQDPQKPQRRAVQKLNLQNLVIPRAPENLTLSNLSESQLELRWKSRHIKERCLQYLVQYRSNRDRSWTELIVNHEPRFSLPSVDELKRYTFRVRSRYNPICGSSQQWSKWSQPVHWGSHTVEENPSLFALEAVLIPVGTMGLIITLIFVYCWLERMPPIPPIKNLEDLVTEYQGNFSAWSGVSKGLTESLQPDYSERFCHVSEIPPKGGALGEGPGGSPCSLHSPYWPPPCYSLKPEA

[2] = target: T1, IL-2R on murine splenocytes; remark: listed apart in the source
[3] = target: T2, IL-2R CD122-CD132 on Jurkat-PD1+ CD122+ cells (UniProt P14784 27-551; P31785 23-369)
T2 sequence (looked up) 1: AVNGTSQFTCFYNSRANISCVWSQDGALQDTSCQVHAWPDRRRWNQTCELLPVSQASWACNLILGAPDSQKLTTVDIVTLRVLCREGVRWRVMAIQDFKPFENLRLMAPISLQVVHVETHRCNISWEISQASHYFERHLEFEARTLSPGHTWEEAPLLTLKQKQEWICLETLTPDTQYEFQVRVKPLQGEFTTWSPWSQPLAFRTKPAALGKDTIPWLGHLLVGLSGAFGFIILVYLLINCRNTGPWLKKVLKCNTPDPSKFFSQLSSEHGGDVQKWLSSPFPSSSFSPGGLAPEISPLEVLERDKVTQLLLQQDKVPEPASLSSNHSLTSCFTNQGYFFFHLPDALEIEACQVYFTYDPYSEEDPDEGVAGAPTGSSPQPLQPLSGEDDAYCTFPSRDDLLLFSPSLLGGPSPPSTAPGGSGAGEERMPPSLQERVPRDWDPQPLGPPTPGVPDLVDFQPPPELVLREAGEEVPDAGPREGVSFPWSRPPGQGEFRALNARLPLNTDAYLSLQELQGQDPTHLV
T2 sequence (looked up) 2: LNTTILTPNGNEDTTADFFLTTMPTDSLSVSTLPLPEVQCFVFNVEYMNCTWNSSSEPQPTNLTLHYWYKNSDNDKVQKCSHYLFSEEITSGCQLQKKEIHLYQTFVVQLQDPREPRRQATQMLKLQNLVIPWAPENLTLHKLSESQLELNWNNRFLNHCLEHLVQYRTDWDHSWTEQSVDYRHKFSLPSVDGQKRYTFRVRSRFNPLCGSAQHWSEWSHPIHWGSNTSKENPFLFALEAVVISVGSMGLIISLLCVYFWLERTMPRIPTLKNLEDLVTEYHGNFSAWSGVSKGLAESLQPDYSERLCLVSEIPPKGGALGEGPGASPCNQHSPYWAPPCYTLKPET

B1: QTY065 (other)
heavy: EVQLVQSGAEVKKPGESLKISCKGSGYAFTNYLIEWVRQMPGKGLEWMGVINPGSGGTNYNEKFKGQVTISADKSISTAYLQWSSLKASDTAMYYCARWRGEGYYAYFDVWGQGTTVTVSSASTKGPSVFPLAPSSKSTSGGTAALGCLVKDYFPEPVTVSWNSGALTSGVHTFPAVLQSSGLYSLSSVVTVPSSSLGTQTYICNVNHKPSNTKVDKRV[gap - human IgG1 Fc with changes]
light: AIRLTQSPSSFSASTGDRVTITCKASQSVDYGGGNFHLRPRDLISNINVIVLELKGSETTFMCEYADETATIVEFLNRWITFSQSIISTLTPTSSSTKKTQLQLEHLLLDLQMILNGINNYKNPKLTRMLTFKFYMPKKATELKHLQCLEEELKPLEEVLNLAQSKGGGGDSYMNWYQQKPGKAPKLLIYAASNLESGVPSRFSGSGSGTDFTLTISSLQSEDFATYYCQQSNEDPYTFGGGTKVEIKRTVAAPSVFIFPPSDEQLKSGTASVVCLLNNFYPREAKVQWKVDNALQSGNSQESVTEQDSKDSTYSLSSTLTLSKADYEKHKVYACEVTHQGLSSPVTKSFNRGEC
For B1, the “EC50 pSTAT5 on CD8 cells” value [1] was 17.9 nM, the “EC50 pSTAT5 on NK cells” value [1] was 2.88 nM and the “EC50 pSTAT5 on Treg cells” value [1] was 4.21 nM. The “EC50 CD8 cells (pSTAT5)” value [2] was 4.6 nM, the “EC50 NK cells (pSTAT5)” value [2] was 1.2 nM and the “EC50 Treg cells (pSTAT5)” value [2] was 5.91 nM. For the same binder, the “EC50 value for pSTAT5 induction” value [3] was 1.07 nM.
